± gives the standard deviation of the averaged measurements. Some of the results follow.

The assay deals with PfAP2-LT AP2 domain (GST-tagged). The assay can be described thus: gcPBM binding intensity (ln(normalized median fluorescence intensity)); higher = stronger DNA binding. Summed up:
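The highest Masliner-normalised natural-log median intensity across replicate spots of either probe orientation is reported as binding intensity. GST-tagged P. falciparum DNA-binding domains expressed in E. coli were applied for 1 h to an Agilent 4 × 180k array of primer-extended double-stranded 36-bp intergenic genomic probes plus negative controls, and bound protein was detected with Alexa488 anti-GST antibody and scanned at 488 nm.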
Regarding “ATCAAAAGAAAACACACACACATACATATATATATA [CACACA_site3795]”, the “gcPBM binding intensity (ln)” value was 10.1 ± 0.3.
The value for “ACCCATTCAAATTTCGCACACACATACAAAAAAAAA [CACACA_site3094]” was 9.42 ± 0.4; that for “CATTAATGACATGATTGTACATAAGCTTTTTTACAT [XGTACX_site1888]” was 8.93 ± 0.32; that for “TTCATATATTATTATGCATGTTCATAAATTATCTAA [TGCATGCA_site896]” was 8.61 ± 0.36.
The value for “TTCATATAATTATATACATGCATAAATTCTAAGTAA [TGCATGCA_site622]” was 8.45 ± 0.35; that for TCATACATGGTGTGTTTGCACTTGACCTATATTCAT was 9.04 ± 0.38; that for “TCTTGAATAACAAAAAAATGTGCCAACAAAATAAAT [XGTACX_negctrl_site172]” was 8.89 ± 0.49.
The value for “ACAACTCGGAAGGTTTGTACTTAAAGTATAATTAAG [XGTACX_site737]” was 8.61 ± 0.53; that for “TTTGTAAAACTATATTGTACTTTTATATATCTACAA [XGTACX_site5507]” was 8.56 ± 0.47.
With “AATTGGAAGAAAAAAAAGGAAGGAAAGTTATTACAT [GTGCAC_negctrl_site74]”, the “gcPBM binding intensity (ln)” value was 8.59 ± 0.58.
Take “TATATACATGCATATACACACATATATTTATTTATA [CACACA_site6327]”: the “gcPBM binding intensity (ln)” value is 8.93 ± 0.31.
The value for “TACTGAAATAATTATTTAAACGTTTTTATATGTATT [CACACA_negctrl_site487]” was 8.8 ± 0.45; that for “TTTATTTTTTCCAAGTCACACATGTTTTGATATATT [CACACA_site4946]” was 8.9 ± 0.49; that for “GTATATATGTATGTATGTACGTATATAGTTATGTAT [XGTACX_site6769]” was 8.98 ± 0.3.
Turning to “ATAAAAAAATTAAATACATGCACATATACACATACA [TGCATGCA_site129]”, the “gcPBM binding intensity (ln)” value stood at 8.89 ± 0.4.
On to “TAAATAGATGTTTTATGTACGTATAAATAAAAAAAA [XGTACX_site3412]”, for which the “gcPBM binding intensity (ln)” value worked out at 8.55 ± 0.52.
For the sequence “TTTTTTTAAAGACATGCATGTAATATTTAAATCATT [TGCATGCA_site495]”, the “gcPBM binding intensity (ln)” value came out at 8.7 ± 0.48.
The value for “ATTAAAAATATAGTCACACATACACCCATATATATT [CACACA_site5394]” was 9.11 ± 0.23.
As for “AGGATACACAGACACACACACATATATATATATATA [CACACA_site907]”, the “gcPBM binding intensity (ln)” value was found to be 10.47 ± 0.064.
The value for “GATTTTTTTTTGTGGACACACAGAAATAAATTTATA [CACACA_site327]” was 8.63 ± 0.44; that for “ATACAACGATATATATATATACAAATACATATTTAT [CACACA_negctrl_site268]” was 9.03 ± 0.4.
In the case of “AATATATTTTTTCACTGTACTTTTATTATATATACA [XGTACX_site8312]”, the “gcPBM binding intensity (ln)” value is 9.13 ± 0.38.
With “AAAAAAAATGGATGATCACACACTTCATAAAAATTG [CACACA_site2213]”, the “gcPBM binding intensity (ln)” value stood at 8.87 ± 0.43.
“ATAATTTTTTGATTTGCATGTAATAAATATATGATA [TGCATGCA_site384]”: the “gcPBM binding intensity (ln)” value was found to be 8.52 ± 0.33.
The value for “ACACATATATAAATATGTACATATATATATATACAT [XGTACX_site1595]” was 9.15 ± 0.28; that for “TCTATTAATTAATATACACACATTAGATATAAATAT [CACACA_site7241]” was 8.62 ± 0.38; that for “TAATTAAATAAAAAAACACACACATATATACATATA [CACACA_site9141]” was 9.2 ± 0.22.
Take “AAAAAAAAAAAAAAAAGTACTAATTGAATATTAAAC [XGTACX_site3383]”: the “gcPBM binding intensity (ln)” value came out at 8.48 ± 0.54.
The value for “ATGGTAAGTATTTTATGTACATATATATTTATATAA [XGTACX_site4003]” was 8.66 ± 0.39.
The value for “ACATATATATAAATATATATATATATATATATATAT [CACACA_negctrl_site874]” was 9.59 ± 0.28.
With “TACACCCATAGACACACACACACGCATAAAAAAAAA [CACACA_site8428]”, the “gcPBM binding intensity (ln)” value is 9.95 ± 0.55.
The value for “AAAAAACAAAAAATTACACACATATATAAATATATT [CACACA_site2317]” was 8.85 ± 0.37; that for “TAATAAAGGTGTAATACACACTATAAAAAGGAATAT [CACACA_site4756]” was 9.04 ± 0.57.
The value for “ATGTGTATATATTATTGTACATATATATATATATAT [XGTACX_site4627]” was 9.48; that for “ACAAGTTAAAATATTACACACATATAAATATATATA [CACACA_site3132]” was 8.88 ± 0.38.
For the sequence “ATAAGGTTACAACAAACACACAAAGGAATATACTCA [CACACA_site6108]”, the “gcPBM binding intensity (ln)” value is 9.11 ± 0.44.
The value for “TTTTATTTACACAGTGGTACTATTAAAAATTAATGA [XGTACX_site6737]” was 8.42 ± 0.41; that for “ACTTACACAGTTGATGGTACACTTTTATGATTTTGT [XGTACX_site3205]” was 9.21 ± 0.42; that for “TTTTTTAACCTTTTATGTACACAATATTTAACATTT [XGTACX_site1170]” was 8.81 ± 0.51.
“ATTTCATATTATGTAACACACAACAAGATAATCAAA [CACACA_site1960]”: the “gcPBM binding intensity (ln)” value worked out at 8.86 ± 0.46.
Take “TATATATAAAGGTGTACACATATATATATATCTGTA [CACACA_site5311]”: the “gcPBM binding intensity (ln)” value worked out at 8.89 ± 0.35.
As to “TTTTTCTTTTTACATACACACAAAAAAATAAAATAT [CACACA_site581]”, the “gcPBM binding intensity (ln)” value worked out at 8.52 ± 0.35.
The value for “TTTTTCAAATTTAATACACACACAAGTATATATTTA [CACACA_site9307]” was 8.9 ± 0.3; that for “AAATTAATATTATGTGCATGCACAAAGAGGAACGAC [TGCATGCA_site754]” was 9.56 ± 0.46.

(Values after the supplement of paper PMC11417369.)
